Measurements reported in the supplement of paper PMC11417369.
± gives the standard deviation of the averaged measurements. The list shows a part of the results.

What follows are sequences tested on PfAP2-I AP2 domain 3 (GST-tagged) (assay: gcPBM binding intensity (ln(normalized median fluorescence intensity)); higher = stronger DNA binding).
Summary of the method: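 Binding intensity is the highest Masliner-normalised natural-log median intensity over replicate spots in either probe orientation. To obtain it, GST-tagged P. falciparum DNA-binding domains made in E. coli were incubated for 1 h on an Agilent 4 × 180k array of primer-extended double-stranded 36-bp intergenic genomic probes plus negative controls. Detection used Alexa488 anti-GST antibody with scanning at 488 nm.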

| Sequence | gcPBM binding intensity (ln) |
| --- | --- |
| CGGCACGTGATATATACACACATATAGATATATACA [CACACA_site6408] | 7.79 ± 0.65 |
| TGGATAATGAATGATGCACACTAAAAATATTCTACA [CACACA_site5912] | 8.65 ± 0.2 |
| TATTTGTAAATCGATACACACATATATCTTAATATA [CACACA_site4273] | 7.43 ± 0.41 |
| CTCAATATTATTACTACACACAAATTAATATTTTCC [CACACA_site55] | 7.92 ± 0.36 |
| ATATATACTATATTTTAACACACAAAAAAAAAAAAT [CACACA_site8277] | 7.96 ± 0.38 |
| TGTTAATTGAATGCAATCTGAATTTTTTTACATAAT [CACACA_negctrl_site1002] | 7.4 ± 0.57 |
| CACCCACCCAGACACACACACACAAAAAAAAAAAGA [CACACA_site499] | 8.12 ± 0.27 |
| CTTTTTTCAAGACACACACACAAGAAAATATAAATA [CACACA_site7455] | 7.97 ± 0.4 |
| GAAAATCAGTTAAACACACACATAAAAAAAAAAAAA [CACACA_site2875] | 7.96 ± 0.4 |
| ATCATATGTATGCATACACACAAAAAGTTATTTATA [CACACA_site6325] | 7.9 ± 0.41 |
| TCAAGTATTAAAATGGGTACATAAATATGTGTATAT [XGTACX_site5884] | 7.87 ± 0.53 |
| CATATAAAAAAATAGACACACATTTTATATAATACG [CACACA_site1896] | 7.67 ± 0.62 |
| TATTTTTCTTTTTTTTTTTTTTTTATATTATACGTG [XGTACX_negctrl_site363] | 7.46 ± 0.41 |
| CTTTTTAAATTAAAATGTACAGAAAAATATTATTAT [XGTACX_site8760] | 7.72 ± 0.69 |
| AAATTATGCATCGAGGTGCGTCTTAAAATATAGTGG | 9.27 ± 0.38 |
| ATATAAATTCAAATTACACACATTTATTTTTTTTAC [CACACA_site53] | 7.7 ± 0.71 |
| ACTAATAATTTGTCGGTGCATAAAATTATTTTTATT [GTGCAC_site9840] | 10.8 ± 0.43 |
| CTACATAATAAAAAAAGTACATTCTAATAAATTGAC [XGTACX_site4504] | 7.79 ± 0.3 |
| TATATGCCTATAAGAAGTACTGTGTAATGTAATATA [XGTACX_site8089] | 7.89 ± 0.45 |

| Sequence | gcPBM binding intensity (ln) |
| --- | --- |
| TAAACATAAATATGCACACATATACATATATTCATA [CACACA_site2667] | 8.69 ± 0.099 |
| AAGAAAAATATATTTATATATATATATATTAAATAT [TGCATGCA_negctrl_site500] | 7.53 ± 0.38 |
| AATTTTATACGATAAACATGCAAATAAATAAATAAA [TGCATGCA_site227] | 8.06 ± 0.9 |
| TATAATAATATTTATTGTACAATTAGTTTAATTCAT [XGTACX_site272] | 7.77 ± 0.31 |
| TTTATTATATAAACATGTACACAATTTGGTATATTC [XGTACX_site3112] | 8.02 ± 0.37 |
| ACAGCCAATACGGAAACACACAAGTTATTTTATCAT [CACACA_site5507] | 7.71 ± 0.57 |
| AAAGAAAAAAAAAACACACACACACCCATTCAATAT [CACACA_site38] | 8 ± 0.54 |
| AATATCTGTATATCCACACACATATATATATATATA [CACACA_site4987] | 9.34 ± 0.45 |
| TAATCGGTAATATTAACACACACATTTATATATATT [CACACA_site8274] | 7.96 ± 0.26 |
| TAATTTCTTATGTAGTGTACAAATAATATATGATAT [XGTACX_site597] | 8.01 ± 0.35 |
| AATATCACCACATTGTTACTATAATATATAAAAAAG [XGTACX_negctrl_site384] | 7.87 ± 0.43 |
| AAAAGGAGAAATATTGCACACGTGCAAAATGGTATG [CACACA_site4300] | 11.3 ± 0.085 |
| GTATTAATAAAAATACGTACTTATTATTTATAATAA [XGTACX_site7672] | 7.665 ± 0.035 |
| ATTATTCATATAACACGTACAAAACGAAAAACAAAT [XGTACX_site3873] | 8.41 ± 0.58 |
| ATTCATAAAAGTTGTACATGCAATTTTTTTTTTTTT [TGCATGCA_site270] | 7.79 ± 0.53 |
| ATTTTGTTATGAAACACACACATATATATATATATA [CACACA_site3650] | 9.6 ± 0.54 |
| ATATATGTAACATATTGTACATATATGTATGTATGT [XGTACX_site3281] | 8.49 ± 0.42 |
| ATGATAAAATTATGTAGTACATATTTGAATGTAAAT [XGTACX_site688] | 7.78 ± 0.58 |
| AATATAAGTAGTACAGTGCATATAATAATTAGAAGA [GTGCAC_site9485] | 10.1 ± 0.13 |

| Sequence | gcPBM binding intensity (ln) |
| --- | --- |
| TTGATTTATATTTAATGTACATTTTTACAGAAAATT [XGTACX_site2747] | 7.68 ± 0.42 |
| CCATAAAAAGGATACACACACACACGCACATATATA [CACACA_site6550] | 8.1 ± 0.37 |
| GATTAAACACAAAGAAGTACGGACATAAAAAAAAAA [XGTACX_site3686] | 8.16 ± 0.69 |
| TCGTGGTTTTAATAAGTGCGCAATTTAAATATTTTT | 9.31 ± 0.18 |
| TATTATTATTATTACACACACAATTATATTTACCCC [CACACA_site503] | 8.33 ± 0.58 |
| GTATATATATATATATATATATATTTTTATTTATTT [CACACA_negctrl_site589] | 8.18 ± 0.35 |
| ACATAGCAATGTTTCACACACAAGAAAAAATACAAT [CACACA_site2379] | 7.87 ± 0.64 |
| GAAATGTGGTAATATACACACACGCATATATTTATA [CACACA_site6285] | 7.75 ± 0.45 |
| TTTGAACTCTTAAGTGGTACAAATTTGTATTTTCTC [XGTACX_site2322] | 7.91 ± 0.5 |
| TATAAATAAAAATATACACACTGTATTATTGTAATA [CACACA_site7721] | 7.58 ± 0.3 |
| AATGGAATATATATTTGTACATAAATATTATAATAA [XGTACX_site8524] | 7.7 ± 0.52 |
| ACATGTTAACTAAATGTACACACCTATGTTGATGTA [CACACA_site1821] | 7.82 ± 0.52 |
| TTTACTCCTACAACATGTACATAAAATAAATTTTTT [XGTACX_site5010] | 8.12 ± 0.45 |
| TTATTTACAACTTTTTTTTTTTTATTTTATTTTATT [CACACA_negctrl_site341] | 7.56 ± 0.67 |
| CATTCTTGTTTAAAAAGTACATAAACATATATATAT [XGTACX_site1751] | 8.8 ± 0.5 |
| TAAATTAATATGTATCGTACAATATATAAAACGATG [XGTACX_site2818] | 7.67 ± 0.46 |
| AAAAAAAATAAAGAGAAAAAAAAAAGAAAATTATAT [GTGCAC_negctrl_site550] | 7.55 ± 0.66 |
| ACATATTATATAACTCGTACTCGTAAAATATGTTGT [XGTACX_site2240] | 7.79 ± 0.5 |
| TTCTTCTGTTTTATTACACACCATTTTGCGTATACA [CACACA_site2070] | 8.46 ± 0.64 |
